The campaign covered roughly 45,000 compounds. About 65 (0.1%) were called active. Calls come from the whole dose curve; as a rule, active = well fitted activation curve with a large enough effect; inconclusive = small, poorly fitted or top-dose-only effect; inactive = no such curve, though single readings can be large or run the other way. Some of the results follow.

This experiment concerns the target Galactocerebrosidase (Homo sapiens) (UniProt P54803). The experiment can be described thus: A Novel Cell-Based Assay to Identify Small Molecules for B -Galactocerebrosidase. Note: 0% is about no effect; nearly all actives have a fitted effect of over 65% in size. To be noted: 145M-Twi-hGALC-G270D cells (Twitcher mouse brain line with human GALC G270D), HMU-beta-Gal fluorescence, 48 h; series mostly up to 57.5 µM; activation: at the top concentration. In short, it runs like this: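 Mutant human GALC (G270D), stably expressed in a Twitcher mouse brain cell line lacking endogenous GALC, is measured in live-treated cells via 6-hexadecanoylamino-4-methylumbelliferyl-β-galactoside hydrolysis (0.1 mM final, pH 5.2) with fluorescent detection.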
Sequence of UniProt P54803 (P54803 whole entry, looked up): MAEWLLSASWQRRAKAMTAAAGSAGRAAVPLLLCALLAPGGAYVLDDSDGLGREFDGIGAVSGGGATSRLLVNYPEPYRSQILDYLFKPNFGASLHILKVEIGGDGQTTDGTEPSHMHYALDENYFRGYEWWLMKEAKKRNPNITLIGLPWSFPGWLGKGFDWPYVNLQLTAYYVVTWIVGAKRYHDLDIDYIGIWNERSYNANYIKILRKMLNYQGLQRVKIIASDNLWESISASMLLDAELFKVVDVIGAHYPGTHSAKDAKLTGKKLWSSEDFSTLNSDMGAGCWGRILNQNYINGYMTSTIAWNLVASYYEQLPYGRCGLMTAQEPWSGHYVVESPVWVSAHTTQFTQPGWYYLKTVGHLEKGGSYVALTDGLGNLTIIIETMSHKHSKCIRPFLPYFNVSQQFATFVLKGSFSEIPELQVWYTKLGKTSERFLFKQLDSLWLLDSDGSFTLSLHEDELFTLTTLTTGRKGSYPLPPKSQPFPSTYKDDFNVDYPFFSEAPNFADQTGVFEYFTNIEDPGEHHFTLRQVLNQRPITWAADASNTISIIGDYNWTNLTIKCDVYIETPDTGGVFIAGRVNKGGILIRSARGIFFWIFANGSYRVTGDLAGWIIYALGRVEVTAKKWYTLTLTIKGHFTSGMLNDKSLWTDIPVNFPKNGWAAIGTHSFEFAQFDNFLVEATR
Turning to `CC(C)c1ccc(S(=O)(=O)c2nnn3c2nc(N2CCN(C)CC2)c2sccc23)cc1`, the “activation” value was inactive: -3.56%.
For `COc1cc(C2c3c(-c4ccccc4O)n[nH]c3C(=O)N2CCO)ccc1OCc1ccccc1` (configuration not stated), the “activation” value was inactive: -7.77%.
For `CC(=O)c1cccc(NC(=O)c2nc3ccccc3n(C)c2=O)c1` the value was inactive: -2.81%.
On to `COc1cccc(CNC(=O)c2ccc3nc(-c4ccc(F)cc4)c(-c4ccc(F)cc4)nc3c2)c1`, for which the “activation” value was inactive: -1.32%.
For `Cc1cccc(CNS(=O)(=O)c2ccc(-c3cnc(C4CC4)o3)cc2)c1` the value was inactive: -18.4%; for `CCCc1cc(=O)n2[nH]c(NC(=O)c3ccc(C(C)(C)C)cc3)nc2n1`, inactive: -1.54%.
As to `COc1cc(NC(=O)C2CCN(c3cnc4ccccc4n3)CC2)cc(OC)c1OC`, the “activation” value is inactive: -22.9%.
As to `CC(=O)c1cccc(NC(=O)CN2C=NS(=O)(=O)c3ccc(C)cc32)c1`, the “activation” value is inactive: -9.88%.
With `Cc1ccc(CNC(=O)COCc2cc(-c3cccs3)on2)cc1` the figure was inactive: -9.23%; with `COc1ccc(C(=O)Nc2nc3nc(C)c(Cc4ccccc4)c(=O)n3[nH]2)cc1OC`, inactive: -15.4%; with `CCOc1ccc(CNC(=O)C2CCN(S(=O)(=O)N3CCC(C)CC3)CC2)cc1OC`, inactive: -7.08%.
As to `CC1=C(C(=O)Nc2cccnc2)C(c2cccc(Br)c2)n2nc(SCc3ccccc3)nc2N1` (configuration not stated), the “activation” value is inactive: -7.7%.
Consider `Cc1cccc(-c2noc(-c3ccccc3NC(=O)C3CC(=O)N(c4ccccc4C)C3)n2)c1` (configuration not stated), for which the “activation” value was inactive: 1.88%.
For `Cn1ccc2cc(S(=O)(=O)N3CCCC(C(=O)NCc4ccccc4)C3)ccc21` (configuration not stated) the value was inactive: -2.35%; for `CCn1c(=O)c2cc(C(=O)Nc3cc(OC)c(OC)c(OC)c3)sc2c2ccccc21`, inactive: -4.52%.
With `CC1=C(C(=O)Nc2ccccc2C)C(c2ccncc2)n2nc(SCc3ccccc3Cl)nc2N1` (configuration not stated), the “activation” value was inactive: 3.43%.
For `COc1ccc(NC(=O)CCSc2nc(-c3ccc(OC)cc3)cc(C(F)(F)F)n2)cc1`, the “activation” value is inactive: 13.9%.
With `O=C(NCCS(=O)(=O)N1CCN(c2ccccc2)CC1)C1CC(=O)N(c2ccc(F)cc2)C1` (configuration not stated) the figure was inactive: -10.6%; with `O=C(COc1ccc(F)cc1)OCc1cc(=O)n2nc(C3CCCCC3)sc2n1`, inactive: -13.7%.
Take `Cc1cc(-c2ccc(C)c(S(=O)(=O)NC(c3cccs3)C(C)C)c2)on1` (configuration not stated): the “activation” value was inactive: -27.9%.
For `CC1=C(C(=O)N2CCN(c3cc(C)ccc3C)CC2)C2(CCC(C)CC2)OC1=O` (configuration not stated) the value was inactive: -3.93%; for `COc1ccc(C(C(=O)NCc2ccccc2)N(C(=O)Cn2nnc3ccccc32)c2cccc(OC)c2)cc1` (configuration not stated), inactive: -11.1%; for `CCc1nnc(SCc2c(F)cccc2Cl)c2cc3sccc3n12`, inactive: -9.1%.
With `CC(C)CCNC(=O)c1ccc2c(c1)NC(=O)C(CS(=O)(=O)Cc1ccc(F)cc1)N2` (configuration not stated) the figure was inactive: -11.4%.
For `Cc1ccc(NC(=O)Cn2cc(C(=O)C3CC3)c3ccccc32)c(C)c1` the value was inactive: -8.64%.
Consider `O=c1oc2c(CN3CCN(CCO)CC3)c(O)ccc2cc1-c1ccccc1`, for which the “activation” value was inactive: -23.1%.
For `COc1ccc(Cn2ccc3nc(C)c(C(=O)NCc4ccc(F)cc4)cc3c2=O)cc1` the value was inactive: -6.79%.
For `Cc1ccc2c(=O)cc(C(=O)Nc3sc4c(c3C(=O)NCc3cccnc3)CCCC4)oc2c1C` the value was inactive: -14.1%; for `Fc1ccc(-c2noc3ncnc(NCCCN4CCN(c5ccccc5)CC4)c23)cc1`, inactive: 2.18%.
For `CCc1cc(C(=O)Nc2cnn(Cc3ccccc3C)c2)no1` the value was inactive: -21.2%.
Take `COc1ccc(S(=O)(=O)NCC(c2ccco2)N2CCOCC2)cc1OC` (configuration not stated): the “activation” value was inactive: -0.669%.
With `COc1ccc(-c2nc3c(C#N)c[nH]n3c2NC2CCCC2)c(OC)c1` the figure was inactive: -17.8%.
Regarding `Cc1ccc(NC(=O)CCc2c(C)nc3cc(-c4ccccc4)nn3c2C)cc1F`, the “activation” value is inactive: -11.1%.
Regarding `COc1cccc(NC(=O)CC2NCCNC2=O)c1` (configuration not stated), the “activation” value is inactive: -2.89%.
For `COc1ccc(C(=O)NCC(c2ccc(N(C)C)cc2)N2CCc3ccccc32)c(OC)c1` (configuration not stated) the value was inactive: -19.6%.
On to `CCn1cc(C(=O)OCC(=O)Nc2cccc(C(C)=O)c2)c(=O)c2ccc(C)nc21`, for which the “activation” value is inactive: 27.7%.
For the compound `OCCN1C[C@H](O)[C@@H](O)[C@H](O)[C@H]1CO`, the “activation” value is inactive: -7.17%.
For `CCOc1ccc(C2CC(=O)Nc3c2c(=O)nc(SCc2ccccc2C)n3C)cc1OC` (configuration not stated) the value was inactive: -12.7%.
For `CCOC(=O)c1c(S(=O)(=O)N2CCCC(C(=O)Nc3cccc(C)n3)C2)c(C)n(C)c1C` (configuration not stated) the value was inactive: -16.3%; for `COc1ccc(Cn2c(=O)c3oc4ccccc4c3n(Cc3ccc(Cl)cc3)c2=O)cc1`, inactive: -4.6%.
On to `COCCCNc1oc(-c2ccc(COc3ccc(Cl)cc3)o2)nc1C#N`, for which the “activation” value is inactive: -10.4%.
With `O=C(Nc1sc2c(c1C(=O)NCC1CCCO1)CCC2)c1cc(=O)c2ccccc2o1` (configuration not stated) the figure was inactive: -17.7%.
With `COc1ccc(CNC(=O)C2CCN(c3nc4ccccc4[nH]3)CC2)cc1OC`, the “activation” value was inactive: -16.8%.
For `CCCCCNC(=O)CCCCCn1c(=O)[nH]c2ccsc2c1=O` the value was inactive: -12.4%; for `Cc1ccc(NC(=O)CSc2nnc3scc(-c4ccccc4)n23)cc1`, inactive: -12.9%.
For `COC(=O)c1ccc(OCC2c3cc(OC)c(OC)cc3CCN2C(=O)c2ccc(F)cc2)cc1` (configuration not stated) the value was inactive: -20.2%.
Consider `O=C(Cn1nnc(-c2ccccc2Cl)n1)Nc1ccc(Br)cc1`, for which the “activation” value was inactive: -20.1%.
For the compound `CCOCCc1nn2c(=O)cc(COC(=O)C3CCCCC3)nc2s1`, the “activation” value was inactive: -9.83%.
For `CCOC(=O)c1c(C)[nH]c(C)c1S(=O)(=O)N1CCCC(C(=O)N2CCN(c3ccccc3)CC2)C1` (configuration not stated) the value was inactive: -16.8%; for `Cc1cccn2c(=O)c3cc(C(=O)NC(C)c4ccccc4)c(=N)n(CCCO)c3nc12` (configuration not stated), inactive: 3.05%.
For `Cc1ccc2c(=O)cc(C(=O)Nc3cccc(C(F)(F)F)c3)oc2c1C` the value was inactive: -8.8%; for `CCOc1ccc(CN2CCc3nc(Nc4ccc(OC)cc4OC)ncc3C2)cc1`, inactive: -15.6%; for `O=C(NCCCN1CCN(c2ccc(F)cc2)CC1)c1ccc2nc(Cc3ccccc3)oc2c1`, inactive: -14.3%.
With `O=[N+]([O-])c1ccc(/C=N\O)o1`, the “activation” value was inactive: -16.1%.
With `CCSC1=NC2(CCN(C(=O)NC3CCCCC3)CC2)N=C1c1ccc(Cl)cc1`, the “activation” value was inactive: -27.4%.
With `CCC(=O)Nc1cccc(C(=O)OCc2cc(=O)n3nc(CC)sc3n2)c1` the figure was inactive: -6.34%.
With `Cc1ccccc1Cn1c(CN2CCC(C(=O)NCCc3ccccc3)CC2)cc2ccccc21` the figure was inactive: 2.07%; with `CCN(CC)CCCNC(=O)c1nn(C)c2c1CS(=O)(=O)c1ccccc1-2`, inactive: -4.34%; with `COc1ccc2c(c1)c1c(c(=O)n(CCc3ccccc3)c(=O)n1Cc1ccc(F)cc1)n2C`, inactive: -4.77%.
Regarding `COc1ccc(NC(=O)c2c(-c3ccc(C)cc3)nnc3ccccc23)c(OC)c1`, the “activation” value was inactive: 1.92%.
As to `CCN(CC)c1nc2ccccc2nc1C(=O)Nc1cccc(C(C)=O)c1`, the “activation” value is inactive: -21.2%.
With `Cc1ccc2sc(NC(=O)c3ccc4c(c3)OCCO4)nc2c1C`, the “activation” value was inactive: -3.35%.
For `COc1ccc2c(c1)c1c(c(=O)n(-c3ccc(F)c(Cl)c3)c(=O)n1Cc1ccccc1C)n2C` the value was inactive: 3.7%.
For the compound `Cc1oc2ncn(C)c(=O)c2c1C(=O)N1CCN(c2ccccc2F)CC1`, the “activation” value is inactive: -11.8%.
Take `CCN1C(=O)c2ccccc2Sc2ccc(NC(=O)c3ccc(Cl)cc3)cc21`: the “activation” value was inactive: -17.3%.
`Cc1ccc(NC(=O)c2sc3nc4c(cc3c2N)CN(Cc2ccccc2)CC4)cc1`: the “activation” value was inactive: 1.15%.
With `Cc1cccc(NS(=O)(=O)c2ccc3c(c2)C(C)(C)C(=O)N3C)c1` the figure was inactive: -14.5%; with `CCc1nn(Cc2ccc(Cl)cc2)c(=O)c2cc3cc(C)ccc3n12`, inactive: 0.103%; with `Cc1cccc(-c2nc3c4ccccc4nc(N4CCN(c5cc(C)ccc5C)CC4)n3n2)c1`, inactive: -4.23%.
Take `Cc1cccc(N2CCN(C(=O)CCn3c(=O)c4cccn4c4cccnc43)CC2C)c1` (configuration not stated): the “activation” value was inactive: -3.65%.
For `O=C(Nc1cccc(Cl)c1)c1cc2c(=O)[nH]c3ccccc3c2s1` the value was inactive: -10.3%; for `COc1cccc(C(=O)Nc2cccc(-c3cn4c(C)csc4n3)c2)c1OC`, inactive: -10%; for `CCOc1ccc(-c2nn(CC(=O)NC3CCCC3)c3c2cnc2ccc(F)cc23)cc1`, inactive: -15.2%.
For `CCc1ccccc1NC(=O)c1cnc2sc(N3CCCC3)nn2c1=O` the value was inactive: 1.6%; for `O=C(Nc1ccc(-c2cn3cccnc3n2)cc1)c1cc(Br)ccc1Cl`, inactive: 4.19%; for `Cc1nnc(N2CCCC(C(=O)NCCc3ccc(Cl)cc3)C2)c2nn(-c3ccccc3)c(C)c12` (configuration not stated), inactive: -5.05%.
Regarding `CC1=C(C(=O)Nc2ccc(C)cc2C)C(c2cccs2)n2nc(SCc3ccccc3Cl)nc2N1` (configuration not stated), the “activation” value was inactive: -10.3%.
`COc1ccc(CN2C(=O)c3ccccc3C2C(=O)NCCc2ccccc2)c(OC)c1` (configuration not stated): the “activation” value is inactive: -9.8%.
In the case of `CC(C)CCNC(=O)CN1N=C(c2ccc(Cl)cc2)CCC1=O`, the “activation” value is inactive: -2.76%.
For `CC(=O)OCC[N+](C)(C)C` the value was inactive: -16.9%; for `COc1cccc(N2CCN(C(=O)Cn3c(-c4cccs4)cc4ccccc43)CC2)c1`, inactive: -0.243%; for `COc1ccc(CNc2oc(-c3ccc(COc4ccccc4C)o3)nc2C#N)cc1`, inactive: -14.2%.
For the compound `Cc1ccc(-c2nc(C)c(CCNS(=O)(=O)c3ccc(F)c(C(F)(F)F)c3)s2)cc1`, the “activation” value is inactive: 0.93%.
Turning to `O=C(Nc1cccc(C(F)(F)F)c1)c1cc2ccc3cccnc3c2[nH]1`, the “activation” value was inactive: -11.8%.
For `CCn1cc(C(=O)N2CCN(c3ccccc3F)CC2)c(=O)c2cc(S(=O)(=O)N(C)C)ccc21` the value was inactive: -19.7%; for `CCOC(=O)c1c(C)[nH]c(CCC(=O)NCc2ccc(N(C)C)cc2)c1C`, inactive: -36.6%; for `Cc1cn2c(=O)cc(COC(=O)COc3ccccc3C)nc2s1`, inactive: 0.437%.
With `O=c1cc(-c2ccccc2)n2c(SCc3ccc(F)cc3)nnc2[nH]1` the figure was inactive: -37.7%; with `O=c1oc2ccccc2cc1-c1cn2cc(Cc3ccc(Cl)cc3)sc2n1`, inactive: -12%; with `CCN(Cc1ccccc1)C(=O)Cn1c(=O)n(-c2ccc(C)c(C)c2)c(=O)c2c(C)c(C)sc21`, inactive: 0.862%.
Consider `Cc1ccc(NC(=O)CN2C(=O)CCSc3ccc(S(=O)(=O)N4CCCC4)cc32)cc1C`, for which the “activation” value is inactive: -16.8%.
For `Cc1ccc(NC(=O)CSc2nc(-c3ccco3)cc(C(F)(F)F)n2)cc1` the value was inactive: -5.69%; for `CC1=C(c2ccc(C)cc2)S(=O)(=O)NC1=NCCCN1CCN(c2ccc(F)cc2)CC1`, inactive: -9.33%.
On to `Cc1ccc(C)c(OC(=O)CSc2nnc(CNC(=O)c3ccccc3)o2)c1`, for which the “activation” value is inactive: -15.6%.
Regarding `COC(=O)c1ccc(C2C(C(=O)Nc3ccccc3)=C(C)Nc3nc4ccccc4n32)cc1` (configuration not stated), the “activation” value was inactive: -4.42%.
As for `CCCSc1ncc(Cl)c(C(=O)Nc2c(C(=O)Nc3ccc(C)cc3)oc3ccccc23)n1`, the “activation” value was inactive: -3.37%.
With `CC(=O)N1CCc2c(sc3nc(SCC(C)C)n(-c4ccc(F)c(Cl)c4)c(=O)c23)C1` the figure was inactive: -1.17%.

Values taken from PubChem BioAssay AID1159614 (National Center for Advancing Translational Sciences (NCATS), 2016).
